The results in this text go back to the supplement of paper PMC4967469.

The IC50 comes from the fitted curve, where viability falls to half of the control; where the fit passes the top or lowest dose, that dose stands as a limit. AUC is the area under the same curve over the 256-fold range up to the top dose, as a fraction; the more sensitive the line, the further below 1. Any top dose called inferred comes from the curve model; the source does not state it. A value given as a limit tells only on which side of the number the result lay.

For orientation: IC50 means the concentration at which inhibition is half-maximal.

Compound in this test: O=C1NC(=O)/C(=C\c2ccc3nccnc3c2)S1 [AS605240]
As to the kind of experiment: Viability of human cancer cell lines after 72 h of drug (GDSC screen). To be noted: top dose inferred. The protocol:
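Human cancer cell lines in 384-well plates, medium with 10% serum, drug for 72 h over a 256-fold dose range (nine 2-fold or five 4-fold steps up to the top dose). Adherent lines were fixed and stained with the nucleic acid dye Syto60, suspension lines read with resazurin; signal relative to control wells, capped at 0 and 100%. One two-parameter sigmoid per drug and line, fitted in a mixed model over all curves with the slope shared within a line.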
For “HCE-4 (oesophagus, adherent, top dose 20 µM)”, the AUC was determined as 0.97 and the IC50 is over 20 µM.
For “HCT-15 (large intestine, adherent, top dose 20 µM)” the same measures were 0.808 and 11.1 µM.
For “HCT-116 (large intestine, adherent, top dose 20 µM)” the same measures were 0.66 and 3.39 µM.
For “HD-MY-Z (Hodgkin lymphoma, adherent, top dose 20 µM)” the same measures were 0.881 and over 20 µM.
Regarding “HDLM-2 (Hodgkin lymphoma, suspension, top dose 20 µM)”, the AUC was 0.886 and the IC50 is over 20 µM.
Turning to “HDQ-P1 (breast, adherent, top dose 20 µM)”, the AUC came to 0.876 and the IC50 is over 20 µM.
The like results for “HEC-1 (endometrium, adherent, top dose 20 µM)” were, in that order, 0.949 and over 20 µM.
The like results for “HEL (acute myeloid leukaemia, semi-adherent, top dose 20 µM)” were, in that order, 0.883 and 15.2 µM.
Regarding “HGC-27 (stomach, adherent, top dose 20 µM)”, the AUC turned out to be 0.916 and the IC50 is over 20 µM.
The like results for “HH (T-cell leukaemia, suspension, top dose 20 µM)” were, in that order, 0.775 and 10.7 µM.
The like results for “HL-60 (acute myeloid leukaemia, suspension, top dose 20 µM)” were, in that order, 0.73 and 5.2 µM.
For HLE (liver, adherent, top dose 20 µM) the same measures were 0.989 and over 20 µM.
With “HMV-II (melanoma, adherent, top dose 20 µM)”, the AUC was found to be 0.943 and the IC50 is over 20 µM.
The like results for “HN (head and neck, adherent, top dose 20 µM)” were, in that order, 0.912 and over 20 µM.
Take “HO-1-N-1 (head and neck, adherent, top dose 20 µM)”: the AUC amounted to 0.965 and the IC50 is over 20 µM.
For “HO-1-u-1 (head and neck, adherent, top dose 20 µM)” the same measures were 0.987 and over 20 µM.
The like results for “HOP-62 (lung adenocarcinoma, adherent, top dose 20 µM)” were, in that order, 0.982 and over 20 µM.
The like results for “HOP-92 (large cell lung carcinoma, adherent, top dose 20 µM)” were, in that order, 0.966 and over 20 µM.
“HOS (osteosarcoma, adherent, top dose 20 µM)”: the AUC amounted to 0.983 and the IC50 is over 20 µM.
Regarding “HPAC (pancreas, adherent, top dose 20 µM)”, the AUC was 0.822 and the half-maximal inhibitory concentration (IC50) is 18.7 µM.
Turning to “HPAF-II (pancreas, adherent, top dose 20 µM)”, the AUC amounted to 0.601 and the IC50 came to 2.57 µM.
For “HSC-2 (head and neck, adherent, top dose 20 µM)” the same measures were 0.891 and over 20 µM.
The like results for “HSC-3 (head and neck, adherent, top dose 20 µM)” were, in that order, 0.96 and over 20 µM.
The like results for “HSC-4 (head and neck, adherent, top dose 20 µM)” were, in that order, 0.939 and over 20 µM.
For the cell line “HSC-39 (stomach, suspension, top dose 20 µM)”, the AUC is 0.981 and the IC50 was over 20 µM.
For “HT55 (large intestine, adherent, top dose 20 µM)” the same measures were 0.967 and over 20 µM.
On to “HT (B-cell lymphoma, suspension, top dose 20 µM)”, for which the AUC is 0.898 and the IC50 is over 20 µM.
For HT-3 (cervix, adherent, top dose 20 µM), the AUC came to 0.94 and the IC50 is over 20 µM.
The like results for “HT-29 (large intestine, adherent, top dose 20 µM)” were, in that order, 0.466 and 1.01 µM.
The like results for “HT-115 (large intestine, adherent, top dose 20 µM)” were, in that order, 0.969 and over 20 µM.
The like results for “HT-144 (melanoma, adherent, top dose 20 µM)” were, in that order, 0.978 and over 20 µM.
Consider “HT-1080 (fibrosarcoma, adherent, top dose 20 µM)”, for which the AUC stood at 0.989 and the IC50 is over 20 µM.
The like results for “HT-1197 (bladder, adherent, top dose 20 µM)” were, in that order, 0.929 and over 20 µM.
As for “HT-1376 (bladder, adherent, top dose 20 µM)”, the AUC came to 0.86 and the IC50 is over 20 µM.
On to “HTC-C3 (thyroid, adherent, top dose 20 µM)”, for which the AUC is 0.911 and the IC50 was over 20 µM.
For “HUTU-80 (digestive system, adherent, top dose 20 µM)” the same measures were 0.696 and 3.97 µM.
In the case of HeLa (cervix, adherent, top dose 20 µM), the AUC came to 0.935 and the IC50 was over 20 µM.
For “Hep 3B2_1-7 (liver, adherent, top dose 20 µM)” the same measures were 0.97 and over 20 µM.
For Hey (ovary, adherent, top dose 20 µM) the same measures were 0.958 and over 20 µM.
The like results for “Hs633T (fibrosarcoma, adherent, top dose 20 µM)” were, in that order, 0.865 and 12.6 µM.
In the case of “Hs683 (glioma, adherent, top dose 20 µM)”, the AUC is 0.927 and the IC50 is over 20 µM.
The like results for “Hs746T (stomach, adherent, top dose 20 µM)” were, in that order, 0.944 and over 20 µM.
For “Hs766T (pancreas, adherent, top dose 20 µM)” the same measures were 0.962 and over 20 µM.
For “Hs939-T (melanoma, adherent, top dose 20 µM)” the same measures were 0.937 and over 20 µM.
On to “Hs940-T (melanoma, adherent, top dose 20 µM)”, for which the AUC turned out to be 0.9 and the IC50 was over 20 µM.
The like results for “Hs-445 (Hodgkin lymphoma, suspension, top dose 20 µM)” were, in that order, 0.664 and 3.43 µM.
For “Hs-578-T (breast, adherent, top dose 20 µM)” the same measures were 0.987 and over 20 µM.
With “HuCCT1 (biliary tract, adherent, top dose 20 µM)”, the AUC turned out to be 0.865 and the IC50 is over 20 µM.
In the case of HuH-7 (liver, adherent, top dose 20 µM), the AUC turned out to be 0.893 and the IC50 is over 20 µM.
Turning to “HuO9 (osteosarcoma, adherent, top dose 20 µM)”, the AUC is 0.682 and the IC50 worked out at 4.3 µM.
The like results for “HuO-3N1 (osteosarcoma, adherent, top dose 20 µM)” were, in that order, 0.982 and over 20 µM.
The like results for “HuP-T3 (pancreas, adherent, top dose 20 µM)” were, in that order, 0.869 and over 20 µM.
For “HuP-T4 (pancreas, adherent, top dose 20 µM)”, the AUC turned out to be 0.628 and the IC50 was 2.88 µM.
The like results for “IA-LM (large cell lung carcinoma, adherent, top dose 20 µM)” were, in that order, 0.902 and over 20 µM.
The like results for “IHH-4 (thyroid, semi-adherent, top dose 20 µM)” were, in that order, 0.988 and over 20 µM.
Regarding “IM-95 (stomach, adherent, top dose 20 µM)”, the AUC was 0.578 and the IC50 worked out at 2.07 µM.
Regarding “IMR-5 (neuroblastoma, adherent, top dose 20 µM)”, the AUC was found to be 0.953 and the IC50 is over 20 µM.
With “IPC-298 (melanoma, adherent, top dose 20 µM)”, the AUC amounted to 0.731 and the IC50 is 5.59 µM.
For “IST-MEL1 (melanoma, adherent, top dose 20 µM)” the same measures were 0.841 and 18 µM.
For “IST-MES1 (mesothelioma, adherent, top dose 20 µM)” the same measures were 0.972 and over 20 µM.
For “IST-SL1 (small cell lung carcinoma, semi-adherent, top dose 20 µM)” the same measures were 0.96 and over 20 µM.
Turning to “IST-SL2 (small cell lung carcinoma, suspension, top dose 20 µM)”, the AUC was found to be 0.887 and the IC50 was over 20 µM.
The like results for J82 (bladder, adherent, top dose 20 µM) were, in that order, 0.898 and over 20 µM.
The like results for “JAR (urogenital system, adherent, top dose 20 µM)” were, in that order, 0.933 and over 20 µM.
With “JEG-3 (urogenital system, adherent, top dose 20 µM)”, the AUC is 0.959 and the IC50 is over 20 µM.
For JHH-1 (liver, adherent, top dose 20 µM) the same measures were 0.813 and 12 µM.
The like results for JHH-2 (liver, adherent, top dose 20 µM) were, in that order, 0.95 and over 20 µM.
JHH-4 (liver, adherent, top dose 20 µM): the AUC is 0.983 and the IC50 is over 20 µM.
